Results taken from the supplement of paper PMC10338343.
± gives the standard deviation. The entries are a selection whose mix differs from that of the whole data set.

Each sequence was assayed on MIWI (PIWIL1) piRISC loaded with L1MC piRNA (30 nt) (assay: pre-steady-state target cleavage rate (min^-1); MIWI and MILI are mouse PIWI proteins and EfPiwi is from a freshwater sponge; tags in brackets are library labels; higher = faster piRNA-guided slicing of the target). Settings: guide: L1MC piRNA 5'p-UAACUAAAUACUAUGCAAGCUGUAGGUCCU; auxiliary factor: 500 nM mouse GTSF1.
Description: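 Cleave-'n-Seq: a library of target RNAs (target site embedded in constant flanks, ACAGCATTCCGCGTTAGTGATATCCG... 5' flank; DNA-blocked outside the site) at 0.1 nM was incubated with 1 nM active mouse MILI or MIWI piRISC (synthetic 5'-monophosphorylated piRNA guide) with or without 500 nM mouse GTSF1 at 33 °C for 1 min to 16 h. Uncleaved targets were sequenced and normalised to non-target controls, and the pooled three trials were fitted to a burst-and-steady-state model to give the pre-steady-state cleavage rate (min^-1; k3 is constrained to at most 1e-4). Sequence is the target site only; target names encode pairing extent (gX:gY) and contiguous / 1-mismatch / 2-mismatch / bulge geometry. Fits with R² ≤ 0 are excluded.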
With UCCUGGAUCAGCUUGCAUAGUAUUUAAGUUA the “pre-steady-state target cleavage rate” value was 0.912 ± 0.046.
UCCUGGUACAGCUAGGAUAGUAUUUAGUUA was tested, and the “pre-steady-state target cleavage rate” value was 0.611 ± 0.084.
With UGGACCUACAGCUUGCAUAGUAUAUAGUUA the “pre-steady-state target cleavage rate” value was 0.892 ± 0.062.
In the case of UCCUGGUACAGCUUGCAUAGUAUGUAGUUA, the “pre-steady-state target cleavage rate” value is reported as 0.135 ± 0.028.
With UCCUGGAACAGCAUGCAUAGUAUUUAGUUA the “pre-steady-state target cleavage rate” value was 1.06 ± 0.052.
With UCCUGGAUGUCCAUGCAUAGAAUUUAGUUA the “pre-steady-state target cleavage rate” value was 0.00489 ± 0.0044.
With AGGACCUACAGGUUGCAUAGUAUUUAGUAA the “pre-steady-state target cleavage rate” value was 1.01 ± 0.098.
In the case of UCCUGCUACUCCUUGCAUAGUAUUUAGUUA, the “pre-steady-state target cleavage rate” value is reported as 0.821 ± 0.034.
UCGACCUACAGCUGUGCAUAGUAUUUAGUUA was tested, and the “pre-steady-state target cleavage rate” value was 1.42 ± 0.073.
With UGGACCAACAGCAUGCAUAGUAUUUAGUUA the “pre-steady-state target cleavage rate” value was 1.24 ± 0.046.
UCCACCUAGAGCUUGCAUAGUAUUUUCAAA was tested, and the “pre-steady-state target cleavage rate” value was 0.228 ± 0.04.
In the case of UCGACCUACAGCUUCCAUAGUAUUUAGUUA, the “pre-steady-state target cleavage rate” value is reported as 0.139 ± 0.033.
For UCCUGGAUGUCGAAGGAAAGUAUUUAGUUA, the “pre-steady-state target cleavage rate” value was less than 0.0001.
In the case of UCGACCUACAGCUUGCUAAGUAUUUAGUUA, the “pre-steady-state target cleavage rate” value is reported as 0.307 ± 0.027.
For UCCUGGAUCAGCUUGCAUAGUAUUAAGAUA, the “pre-steady-state target cleavage rate” value was 0.265 ± 0.05.
With UGGACCUACAGCCUUGCAUAGUAUUUAGUUA the “pre-steady-state target cleavage rate” value was 1.21 ± 0.081.
For UCCUGGAACAGCUUGCAUACUAUUUAGUUA, the “pre-steady-state target cleavage rate” value was 0.321 ± 0.025.
UCCUGGUACAGCUUGCAAAGAAUUUAGUUA was tested, and the “pre-steady-state target cleavage rate” value was 0.185 ± 0.039.
UGGACCUACAGCUUGCAAUCUAUUUAGUAA was tested, and the “pre-steady-state target cleavage rate” value was 0.0744 ± 0.012.
With UCCUGGUACAGCUUGGAUUGUAUUUAGUUA the “pre-steady-state target cleavage rate” value was 0.0415 ± 0.013.
UCCUGCUACAGCUUGCAUAGUAAUUUAGUUA was tested, and the “pre-steady-state target cleavage rate” value was 0.169 ± 0.021.
For UCGACCUACAGCUUGGAUAGUAUUUAGUAA, the “pre-steady-state target cleavage rate” value was 0.859 ± 0.043.

Same assay, conditions: guide: L1MC piRNA 5'p-UAACUAAAUACUAUGCAAGCUGUAGGUCCU; auxiliary factor: none (no GTSF1)
With UCCUGGAUCAGCUUGCAUAGUAUUUAAGUUA the “pre-steady-state target cleavage rate” value was 0.0267 ± 0.0066.
UCCUGGUACAGCUAGGAUAGUAUUUAGUUA was tested, and the “pre-steady-state target cleavage rate” value was 0.00486 ± 0.002.
UGGACCUACAGCUUGCAUAGUAUAUAGUUA was tested, and the “pre-steady-state target cleavage rate” value was 0.0341 ± 0.0087.
With UCCUGGUACAGCUUGCAUAGUAUGUAGUUA the “pre-steady-state target cleavage rate” value was 0.00992 ± 0.0027.
For UCCUGGAACAGCAUGCAUAGUAUUUAGUUA, the “pre-steady-state target cleavage rate” value was 0.0304 ± 0.0059.
AGGACCUACAGGUUGCAUAGUAUUUAGUAA was tested, and the “pre-steady-state target cleavage rate” value was 0.0537 ± 0.013.
With UCCUGCUACUCCUUGCAUAGUAUUUAGUUA the “pre-steady-state target cleavage rate” value was 0.0234 ± 0.0047.
For UCGACCUACAGCUGUGCAUAGUAUUUAGUUA, the “pre-steady-state target cleavage rate” value was 0.0386 ± 0.0081.
In the case of UGGACCAACAGCAUGCAUAGUAUUUAGUUA, the “pre-steady-state target cleavage rate” value is reported as 0.0449 ± 0.01.
UCGACCUACAGCUUCCAUAGUAUUUAGUUA was tested, and the “pre-steady-state target cleavage rate” value was 0.0044 ± 0.0022.
UCGACCUACAGCUUGCUAAGUAUUUAGUUA was tested, and the “pre-steady-state target cleavage rate” value was 0.00295 ± 0.0014.
For UCCUGGAUCAGCUUGCAUAGUAUUAAGAUA, the “pre-steady-state target cleavage rate” value was 0.00645 ± 0.0033.
For UGGACCUACAGCCUUGCAUAGUAUUUAGUUA, the “pre-steady-state target cleavage rate” value was 0.0496 ± 0.0085.
For UCCUGGAACAGCUUGCAUACUAUUUAGUUA, the “pre-steady-state target cleavage rate” value was 0.0268 ± 0.0062.
UCCUGGUACAGCUUGCAAAGAAUUUAGUUA was tested, and the “pre-steady-state target cleavage rate” value was 0.00811 ± 0.0032.
For UCCUGGUACAGCUUGGAUUGUAUUUAGUUA, the “pre-steady-state target cleavage rate” value was 0.00857 ± 0.0027.
In the case of UCCUGCUACAGCUUGCAUAGUAAUUUAGUUA, the “pre-steady-state target cleavage rate” value is reported as 0.00511 ± 0.0023.
In the case of UCGACCUACAGCUUGGAUAGUAUUUAGUAA, the “pre-steady-state target cleavage rate” value is reported as 0.0299 ± 0.0054.
